{"source": "PubChem BioAssay AID686978", "about": "(National Center for Advancing Translational Sciences (NCATS), 2013)", "note": "Screen size: about 420,000 compounds; about 64,000 (15%) were called active. This list was built around the results that the source calls inconclusive (neither active nor inactive); the mix of calls is not that of the screen. The call rests on the fitted dose curve; in most records, active means well fitted inhibition curve with a large enough effect; inconclusive means small, poorly fitted or top-dose-only effect; inactive means flat fitted curve, though single readings scatter. No potency is given beside an inconclusive call; the fits are too rough. On the % scale 0 is the no-effect control and ±100 the full control effect; potency means the concentration at half of the fitted maximal effect; tags describe the fitted curve by direction and shape.", "data": [{"assay": "qHTS for Inhibitors of human tyrosyl-DNA phosphodiesterase 1 (TDP1): qHTS in cells in absence of CPT; further: nearly all actives have a fitted effect of over 55% in size", "details": "DT40 Tdp1-/- hTDP1 cells, no CPT, ATP luminescence, 48 h; activity change, negative = growth inhibition: at 46.2 µM (top of the series) unless noted", "summary_of_the_method": "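No-CPT arm: Tdp1-/-;hTDP1 DT40 cells (400/well) plus compounds, incubated ≥48 hr at 37 °C. Readout CellTiter-Glo luminescence.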", "values": [{"smiles": "O=C(c1ccco1)N1CCN(S(=O)(=O)c2ccc([N+](=O)[O-])cc2)CC1", "Potency": "inconclusive [inhibitor, single point]"}, {"smiles": "CC(C)C[C@H](NC(=O)c1[nH]cnc1C(=O)N[C@@H](C)C(=O)OC(C)(C)C)C(=O)OC(C)(C)C", "Potency": "active: 11.6 µM"}, {"smiles": "CC(C)C[C@@H](C(=O)NC1CC1)N1C(=O)N2CCc3c([nH]c4ccccc34)[C@@]2(C)C1=O", "Potency": "inconclusive [inhibitor, single point]"}, {"smiles": "N/C(CC(=O)Nc1ccc(F)cc1F)=N\\OC(=O)c1cccs1", "Potency": "inconclusive [inhibitor, single point]"}, {"smiles": "COCCn1nnnc1C(c1ccccc1Cl)N1CCN(c2ccccc2OC)CC1", "note": "(centres undefined)", "Potency": "inconclusive [inhibitor, single point]"}, {"smiles": "c1ccc2c(NCCN3CCOCC3)nc(-c3ccoc3)nc2c1", "Potency": "inactive"}, {"smiles": "COCCN(C(=O)COC(=O)/C=C/c1ccco1)c1c(N)n(Cc2ccccc2)c(=O)[nH]c1=O", "Potency": "inactive"}, {"smiles": "COc1ccc(Oc2nc(-c3ccncc3)nc3ccccc23)cc1", "Potency": "inconclusive [inhibitor, single point]"}, {"smiles": "O=C(OCC(=O)c1c[nH]c2ccccc12)c1cccc([N+](=O)[O-])c1", "Potency": "inactive"}, {"smiles": "COc1ccc(NC(=O)CSc2nc3nc(C)cc(C)n3n2)cc1OC", "Potency": "inactive"}, {"smiles": "CCCCCCCCN1C(=O)[C@H](CC(=O)NCCc2ccccc2OC)C[C@@]2(C(=O)OCC)CCC=C12", "Potency": "inconclusive [inhibitor, single point]"}, {"smiles": "CCOC(=O)[C@]12CCCC=C1N(CCC1=CCCCC1)C(=O)[C@H](CC(=O)NCC1CCCCC1)C2", "Potency": "inconclusive [inhibitor, single point]"}, {"smiles": "O=C(Nc1cccc(F)c1)C1CCN(S(=O)(=O)c2ccc3[nH]c4c(c3c2)CCCCC4)CC1", "Potency": "inconclusive [inhibitor, single point]"}, {"smiles": "CCc1ccc(S(=O)(=O)Nc2cccc(-c3ccc(OC)nn3)c2)s1", "Potency": "active: 9.2 µM"}, {"smiles": "CN1CCN(c2ncnc3c2ncn3[C@H]2CN(Cc3cccs3)C[C@@H](CO)O2)CC1", "Potency": "inactive"}, {"smiles": "Cc1cccc2c(=O)cc(CSc3ccccc3NC(=O)c3cccc(Br)c3)[nH]c12", "Potency": "inconclusive [inhibitor, single point]"}, {"smiles": "COc1ccccc1CCn1cnc(Cc2ccccc2)c1C(C)C", "Potency": "active: 7.31 µM"}, {"smiles": "CCOC(=O)C(=CN(CCc1ccccc1)CC(=O)OC)C(=O)OCC", "Potency": "inactive"}, {"smiles": "COc1ccc(NC(=O)C2CC(=O)n3cnnc3S2)cc1", "note": "(centres undefined)", "Potency": "active: 4.61 µM"}, {"smiles": "O=C(/C=C/c1ccc(Cl)cc1Cl)N(Cc1ccc(Cl)cc1)C1CCS(=O)(=O)C1", "note": "(centres undefined)", "Potency": "active: 16.4 µM"}, {"smiles": "O=C1C(c2ccccc2)=NCCN1C(c1ccc(F)cc1)c1nc2ccccc2[nH]1", "note": "(centres undefined)", "Potency": "inactive"}, {"smiles": "CCOC(=O)c1ccc(NC(=O)c2nc[nH]c2C(=O)N[C@H](C)c2ccccc2)cc1", "Potency": "inconclusive [inhibitor, single point]"}, {"smiles": "O=C(NCc1ccccc1)C(c1ccc(F)cc1)N1CCN(C(=O)C2CCCO2)CC1", "note": "(centres undefined)", "Potency": "inactive"}, {"smiles": "COc1ccc(NC(=O)NCCN2CCc3ccccc3C2)cc1", "Potency": "inactive"}, {"smiles": "O=C(NCC(c1ccco1)N1CCCCC1)c1cccnc1", "note": "(centres undefined)", "Potency": "inactive"}, {"smiles": "CCOc1ccccc1NC(=O)NCc1noc2ccc(C)cc12", "Potency": "inconclusive [inhibitor, single point]"}, {"smiles": "CCCn1c(N)c(C(=O)CSc2nc(C)cs2)c(=O)[nH]c1=O", "Potency": "active: 14.6 µM"}, {"smiles": "O=C(c1ccc(-c2ccccc2)cc1)c1ccccc1C(=O)N1CCOCC1", "Potency": "inconclusive [inhibitor, partial curve]"}, {"smiles": "COc1cc(OC)cc(-c2c(-c3cccs3)c3cc(-c4cnc(N)nc4)ccc3n2C)c1", "Potency": "inconclusive [inhibitor, single point]"}, {"smiles": "CCCCCC(=O)N1C[C@H](O)[C@@H](n2cc(C3CC3)nn2)C[C@@H]1c1ccc(Cl)cc1", "Potency": "inactive"}, {"smiles": "COc1ccc(/C=N/NC(N)=S)cc1", "Potency": "inconclusive [inhibitor, single point]"}, {"smiles": "CC(C)NC(=O)c1onc(CSc2ccc(C(C)C)cc2)c1C(=O)O", "Potency": "inconclusive [inhibitor, single point]"}, {"smiles": "CCC1CCCCN1CCCNC(=O)c1c(C)oc2ncn(CC(C)C)c(=O)c12", "note": "(centres undefined)", "Potency": "inactive"}, {"smiles": "Cc1ccc(NCCCn2cnc3c(OCc4ccccc4)ncnc32)cc1C", "Potency": "inconclusive [inhibitor, single point]"}, {"smiles": "CCn1nc(C)cc1C(=O)NCCN1Cc2ccccc2OC(c2ccccc2F)C1", "note": "(centres undefined)", "Potency": "active: 16.4 µM"}, {"smiles": "O=C(O)c1cc(N/N=C/c2ccncc2)ccc1Cl", "Potency": "inactive"}, {"smiles": "O=C(C1Cc2ccccc2CN1S(=O)(=O)c1ccccc1[N+](=O)[O-])N1CCOCC1", "note": "(centres undefined)", "Potency": "inconclusive [inhibitor, single point]"}, {"smiles": "COC(=O)CN1C(=O)[C@H]2[C@@H](/C=C/c3ccccc3)N3C(=O)CN(CCO)C(=O)[C@@]3(Cc3ccccc3)[C@H]2C1=O", "Potency": "inactive"}, {"smiles": "Cc1ccc(N2CC(C(=O)NCc3nnnn3-c3ccc(C)c(C)c3)CC2=O)cc1C", "note": "(centres undefined)", "Potency": "inconclusive [inhibitor, single point]"}, {"smiles": "O=C(C1=C[C@H](c2ccccc2)C[C@H](OCc2ccc(CO)cc2)O1)N1CCN(Cc2ccccc2)CC1", "Potency": "inconclusive [inhibitor, single point]"}, {"smiles": "Nc1c(C(=O)CSc2nc3ccccc3o2)c(=O)[nH]c(=O)n1C1CC1", "Potency": "inconclusive [inhibitor, partial curve]"}, {"smiles": "CC(C)c1ccc2oc(-c3cc(NC(=O)c4cccnc4)ccc3Cl)nc2c1", "Potency": "active: 16.4 µM"}, {"smiles": "Cn1c(SCC(=O)c2ccccc2F)nnc1C1CC1", "Potency": "inactive"}, {"smiles": "O=C(OCc1cccc(C(F)(F)F)c1)c1ccc[nH]c1=O", "Potency": "inactive"}, {"smiles": "CC(C)(C)n1ncc2c(=O)n(CC(=O)NCCc3ccccc3)cnc21", "activity change, negative = growth inhibition": "inconclusive: -32.9% [inhibitor]"}, {"smiles": "O=C(Cc1ccccc1)Nc1ncccn1", "Potency": "inactive"}, {"smiles": "COc1ccc(C2=CC(=O)CC(c3ccccc3)C2)cc1", "note": "(centres undefined)", "Potency": "inconclusive [inhibitor, single point]"}, {"smiles": "OCC[C@H]1C[C@@H](O)[C@H](O)[C@]2(CCCCO2)O1", "Potency": "inactive"}, {"smiles": "Cc1cc(C)nc(Sc2ccc(C=O)cc2[N+](=O)[O-])n1", "Potency": "inconclusive [inhibitor, partial curve, poor fit]"}, {"smiles": "COc1ccc(S(=O)(=O)Nc2ccc3c(c2)C(=O)N([C@H](C)CO)C[C@H](C)[C@@H](CN(C)S(=O)(=O)c2ccc(OC)cc2)O3)cc1", "Potency": "inconclusive [inhibitor, single point]"}, {"smiles": "S=C(Nc1ccccn1)Nc1ccccc1Cl", "Potency": "inconclusive [inhibitor, single point]"}, {"smiles": "CCOc1ccc(C(=O)Nc2nc(-c3ccc(Br)cc3)ns2)cc1", "Potency": "inconclusive [inhibitor, partial curve]"}, {"smiles": "CC1CCn2c(nc3cc(C(=O)NCCc4ccccc4)ccc32)C1", "note": "(centres undefined)", "Potency": "inconclusive [inhibitor, single point]"}, {"smiles": "CCn1nc(C(=O)NC2=NCCS2)c2ccccc2c1=O", "Potency": "inactive"}, {"smiles": "COc1ccc(NC(=O)Cn2c(SCc3ccc(F)cc3)nc3cccnc32)c(OC)c1", "Potency": "active: 20.6 µM"}, {"smiles": "Cc1[nH][nH]c(=O)c1N=Nc1ccccc1", "Potency": "inactive"}, {"smiles": "CCN(CC)S(=O)(=O)c1cccc(C(=O)NCCc2ccccc2)c1", "Potency": "inconclusive [inhibitor, single point]"}, {"smiles": "CCOC(=O)Nc1ccc2c(c1)C(=NO)c1ccccc1-2", "Potency": "active: 20.6 µM"}, {"smiles": "c1ccc(Sc2cccc3ccccc23)c(CNC2=NCCN2)c1", "Potency": "active: 11.6 µM"}, {"smiles": "O=C(c1ccc(Cl)cc1Cl)N1CCN(c2ccc(N3CCOCC3)nn2)CC1", "Potency": "inconclusive [inhibitor, single point]"}, {"smiles": "C=CCc1cc(Cl)ccc1OCCNCCCOC", "Potency": "inconclusive [inhibitor, single point]"}, {"smiles": "Cc1ccc2c(=O)cc(C(=O)Nc3ccc(S(=O)(=O)N4CCCCC4)cc3)oc2c1", "Potency": "inactive"}, {"smiles": "Cc1cccc(Oc2sc(C(=O)c3ccccc3)c(N)c2C#N)c1", "Potency": "inconclusive [inhibitor, single point]"}, {"smiles": "COc1ccc(/C=N/NC(=O)CNS(=O)(=O)c2ccc(C)cc2)cc1", "Potency": "inactive"}, {"smiles": "O=C(COC(=O)c1cc([N+](=O)[O-])ccc1N1CCOCC1)Nc1ccccc1OC(F)F", "Potency": "inactive"}, {"smiles": "Cc1nnc(SCc2cc(=O)oc3ccc4ccccc4c23)n1Cc1ccccc1", "Potency": "inconclusive [inhibitor, partial curve, poor fit]"}, {"smiles": "CCN(CCn1cccn1)C(=O)CCc1nnc(C2(c3ccc(Cl)cc3)CCC2)o1", "Potency": "inactive"}, {"smiles": "COc1ccccc1NS(=O)(=O)c1ccc(C(=O)NCC(c2cccs2)N2CCOCC2)cc1", "note": "(centres undefined)", "Potency": "inconclusive [inhibitor, single point]"}, {"smiles": "COC(=O)c1ccccc1NC(=O)CCC(=O)N1CC(C)Sc2ccccc21", "note": "(centres undefined)", "Potency": "active: 14.6 µM"}, {"smiles": "COc1cccc(CN2CCCC(c3nc(C)ncc3-c3ccc(F)cc3)C2)c1OC", "note": "(centres undefined)", "Potency": "active: 20.6 µM"}, {"smiles": "C[C@H]1CN([C@@H](C)CO)C(=O)c2cccc(NC(=O)C3CC3)c2O[C@H]1CN(C)Cc1ccc(C(F)(F)F)cc1", "Potency": "inconclusive [inhibitor, single point]"}, {"smiles": "COc1ccc(/C=C/c2c([N+](=O)[O-])c(=O)n(C)c(=O)n2C)c(OC)c1", "Potency": "inactive"}, {"smiles": "CC(C)(C)NC1=CC(=O)OC12CCCCC2", "Potency": "inactive"}, {"smiles": "COc1ccc(C(=O)N2CCC3(CCN(C(=O)Nc4ccccc4)CC3)CC2)cc1", "Potency": "inconclusive [inhibitor, single point]"}]}]}
